Counter-ions that a name gives are not always drawn. ± gives the standard deviation of the averaged measurements. The list shows a part of the results. Single values are uncertain, as repeats are few or missing.
Assays:
Assay in all cases: log2 surviving fraction relative to plate median (drug vs vehicle, or drug+dl922-947 vs dl922-947 alone); ovarian cancer lines: OVCAR4 is platinum-sensitive while Ov4Cis resists cisplatin and Ov4Carbo carboplatin; higher = more cell survival
Conditions in all cases: compound concentration: 10 uM, 192 h
OVCAR4 = test system: OVCAR4
Ov4Carbo = test system: Ov4Carbo
Ov4Cis = test system: Ov4Cis
[1] = dl922-947 oncolytic adenovirus co-treatment: MOI 10
[2] = dl922-947 oncolytic adenovirus co-treatment: none

SMILES	log2 surviving fraction (OVCAR4; [1])	log2 surviving fraction (OVCAR4; [2])	log2 surviving fraction (Ov4Carbo; [1])	log2 surviving fraction (Ov4Carbo; [2])	log2 surviving fraction (Ov4Cis; [1])	log2 surviving fraction (Ov4Cis; [2])
CO[C@H]1/C=C/O[C@@]2(C)Oc3c(C)c(O)c4c(O)c(c(/C=N/N5CCN(C)CC5)c(O)c4c3C2=O)NC(=O)/C(C)=C\C=C\[C@H](C)[C@H](O)[C@@H](C)[C@@H](O)[C@@H](C)[C@H](OC(C)=O)[C@@H]1C [Rifampin (Rifadin, Rimactane)]	0.666 ± 0.32	-1.2 ± 0.63	-1.01	1.37	-0.0738	0.415
Cc1cc(C(C#N)c2ccc(Cl)cc2)c(Cl)cc1NC(=O)c1cc(I)cc(I)c1O (stereo not drawn) [Closantel Sodium]	0.0328 ± 0.063	0.349 ± 0.0062	1.63	-2.36	0.996	-2.79
CC1=CC(=O)c2ccccc2C1=O [Menadione]	0.692 ± 0.65	-0.448 ± 0.81	0.119	-0.271	-0.348	0.427
CC(C)NCC(O)COc1ccc(CCOCC2CC2)cc1 (stereo not drawn) [Betaxolol hydrochloride (Betoptic)]	0.033 ± 0.3	0.227 ± 0.06	0.946	0.415	-0.295	0.397
C[N+](C)(C)CC(O)CC(=O)[O-] (racemic) [DL-Carnitine hydrochloride]	-0.372 ± 0.64	-0.684 ± 0.28	0.0853	0.469	0.602	-0.582
O=C(O)c1cn(C2CC2)c2cc(N3CCNCC3)c(F)cc2c1=O [Ciprofloxacin (Cipro)]	-0.875 ± 0.052	-0.703 ± 0.47	-0.375	-0.921	-1.24	-0.878
CN(C)CCCSC(=N)N [Dimaprit 2HCl]	0.418 ± 0.035	0.345 ± 0.13	-0.105	-0.151	-0.444	0.52
CCC[C@H](N[C@@H](C)C(=O)N1[C@H](C(=O)O)C[C@@H]2CCCC[C@@H]21)C(=O)OCC [Perindopril Erbumine (Aceon)]	-0.161 ± 0.16	-0.271 ± 0.14	0.147	-0.274	-0.0893	-0.0321
CCCCNc1cc(C(=O)O)cc(S(N)(=O)=O)c1Oc1ccccc1 [Bumetanide]	1.18 ± 0.11	1.42 ± 0.41	1.87	1.51	-0.0116	0.494
CC[N+]1(C)CCCC(OC(=O)C(O)(c2ccccc2)c2ccccc2)C1 (stereo not drawn) [Pipenzolate Bromide]	0.209 ± 2	-1.13 ± 0.86	0.391	1.16	0.0843	-0.338
CC1CCc2cc(F)cc3c(=O)c(C(=O)O)cn1c23 (stereo not drawn) [Flumequine]	-0.815 ± 1.1	-0.476 ± 0.86	-1.06	0.754	-1.31	-3.57
CN(CCOc1ccc(CC2SC(=O)NC2=O)cc1)c1ccccn1 (stereo not drawn) [Rosiglitazone HCl]	1.26 ± 0.035	1.21 ± 0.98	0.0453	0.114	0.554	1.03
CC(=O)[C@]1(O)Cc2c(O)c3c(c(O)c2[C@@H](O[C@H]2C[C@H](N)[C@H](O)[C@H](C)O2)C1)C(=O)c1ccccc1C3=O [Idarubicin HCl]	-9.25 ± 2.2	-9.95 ± 8.8	-7.87	-10.6	-9.67	-15.3
CCCc1nn(C)c2c(=O)[nH]c(-c3cc(S(=O)(=O)N4CCN(C)CC4)ccc3OCC)nc12 [Sildenafil citrate]	0.505 ± 0.23	0.718 ± 1.2	-0.0668	1.07	1.25	1.8
COc1cccc2c1C(=O)c1c(O)c3c(c(O)c1C2=O)C[C@@](O)(C(=O)CO)C[C@@H]3O[C@H]1C[C@H](N)[C@H](O)[C@H](C)O1 [Doxorubicin (Adriamycin)]	-7.8 ± 1.6	-8.55 ± 9.1	-5.59	-10.5	-3.68	-11.1
COc1c(N2C[C@@H]3CCCN[C@@H]3C2)c(F)cc2c(=O)c(C(=O)O)cn(C3CC3)c12 [Moxifloxacin hydrochloride]	0.103 ± 0.45	-0.208 ± 0.29	-0.933	0.293	-0.83	-0.115
N=C(N)Nc1ccc(C(=O)Oc2ccc3cc(C(=N)N)ccc3c2)cc1 [Nafamostat mesylate]	-0.34 ± 0.13	-0.0251 ± 0.76	0.181	0.0404	-0.0433	0.0323
Cc1ncc([N+](=O)[O-])n1CC(O)CCl (stereo not drawn) [Ornidazole]	0.298 ± 0.64	0.756 ± 0.41	1.35	0.676	0.664	-0.464
COc1ccc2c(c1)c(CC(=O)O)c(C)n2C(=O)c1ccc(Cl)cc1 [Indomethacin (Indocid, Indocin)]	-0.0924 ± 0.9	-0.0802 ± 0.37	-0.48	0.858	0.909	-0.00724
CN1CC(=O)NC1=N [Creatinine]	0.815 ± 0.37	0.32 ± 0.17	0.407	0.464	-0.223	0.378
Nc1[nH]cnc2ncnc1-2 [Adenine]	-0.182 ± 0.44	0.321 ± 0.0093	0.166	-0.0462	0.102	1.05
CN(CCOc1ccc(CC2SC(=O)NC2=O)cc1)c1ccccn1 (stereo not drawn) [Rosiglitazone maleate]	1.31 ± 0.61	0.606 ± 0.6	0.708	0.271	0.326	0.165
O=S(=O)(O)CCS [Mesna (Uromitexan, Mesnex)]	-0.387 ± 0.71	0.886 ± 0.68	-0.361	0.52	-0.0337	-0.429
